Out of some 73,000 compounds screened, about 2,500 (3.4%) were called active. This list was built around the results that the source calls inconclusive (neither active nor inactive); the mix of calls is not that of the screen. The call rests on the fitted dose curve; in most records, active means well fitted inhibition curve with a large enough effect; inconclusive means small, poorly fitted or top-dose-only effect; inactive means no such curve, though single readings can be large or run the other way. A potency beside an inconclusive call is a rough fit, not a confirmed value.
Each compound was assayed against 3-hydroxyacyl-CoA dehydrogenase type-2 (Homo sapiens) (UniProt Q99714) (assay: qHTS Assay for Inhibitors of HADH2 (Hydroxyacyl-Coenzyme A Dehydrogenase, Type II)). Details: recombinant HADH2, NADH fluorescence, beta-hydroxybutyryl-CoA; activity change, negative = inhibition: at 57.1 µM (top of the series).
How it was run: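 Read-out: 360 nm excitation, 450 nm emission, kinetic over 4 min. Conditions: His-tagged human HADH2 20 nM, pH 9.0 Tris with Tween-20, 1 mM NAD+, 90 uM beta-hydroxybutyryl-CoA.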
Further: nearly all actives have a fitted effect of over 60% in size.
On the % scale 0 is the no-effect control and ±100 the full control effect; potency means the concentration at half of the fitted maximal effect; tags describe the fitted curve by direction and shape.

UniProt Q99714, sequence (Q99714 whole entry, looked up): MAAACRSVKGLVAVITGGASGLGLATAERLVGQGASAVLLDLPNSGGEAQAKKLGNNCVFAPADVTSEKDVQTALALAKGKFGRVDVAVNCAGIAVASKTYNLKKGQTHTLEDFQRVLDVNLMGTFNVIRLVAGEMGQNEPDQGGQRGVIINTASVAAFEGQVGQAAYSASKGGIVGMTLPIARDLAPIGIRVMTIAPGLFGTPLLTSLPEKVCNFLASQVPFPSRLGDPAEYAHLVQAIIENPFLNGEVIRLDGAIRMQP
UniProt Q99714, sequence (Q99714 whole entry, looked up): as above

SMILES | Potency | activity change, negative = inhibition
Oc1ccc(Nc2nc(-c3ccc(O)cc3)cs2)cc1 | active: 7.94 µM | 
CO[C@H]1COC(=O)C/C=C\[C@@H](C)COC(=O)[C@@H](C)NC(=O)C/C=C\[C@@H]1C |  | inactive: -12.5% [at 11.4 µM]
O=C1CCCC(O)=C1C(C#Cc1ccccc1)C1=C(O)CCCC1=O | active: 12.6 µM | 
COCCCn1c(=NC(=O)c2ccncc2)c(C#N)cc2c(=O)n3cccc(C)c3nc21 | inconclusive: 7.94 µM [inhibitor, single point] | 
Cc1cc(C)n(CCO)c(=O)n1 | inconclusive: 6.31 µM [inhibitor, single point] | 
CC1CN(C(c2ccco2)c2sc3ncnn3c2O)CC(C)O1 (stereo not drawn) | inconclusive: 31.6 µM [inhibitor, single point] | 
O=C(CCSc1ccccc1)NCC1CCCO1 (stereo not drawn) | inconclusive: 3.16 µM [inhibitor, single point] | 
Cc1cc(C)c(Cn2c(=O)n(CCCC(=O)NCc3ccco3)c(=O)c3ccccc32)c(C)c1 |  | inactive: 5.95%
c1ccc(CSc2nnc(-c3ccco3)c(-c3ccco3)n2)cc1 | active: 5.01 µM | 
CCn1c(/C=N/n2cnnc2)nc2ccccc21 | active: 31.6 µM | 
CCSc1nc2n(n1)C(c1cccc(F)c1)C1=C(CCCC1=O)N2 (stereo not drawn) | inconclusive: 39.8 µM [inhibitor, single point] | 
O=c1c(-c2ccc(F)cc2)coc2cc(O)ccc12 | active: 2.51 µM | 
CN(C)c1ccc(-c2nc3ccccc3n2C)cc1 | active: 3.98 µM | 
COc1cc(-c2[o+]c3cc(O)cc(O)c3cc2O)cc(O)c1O | active: 0.794 µM | 
Cc1cc(C)nc(SCCc2cccc[n+]2C)n1 | inconclusive: 6.31 µM [inhibitor, single point] | 
Cc1cccc(CNc2ccnc(-c3ccoc3)n2)c1 | inconclusive: 10 µM [inhibitor, partial curve] | 
Cc1occc1C(=O)Nc1cccc(Cn2cccn2)c1 | inconclusive: 0.0316 µM [inhibitor, partial curve, poor fit] | 
CN(C)CCCCSC(=N)N | inconclusive: 6.31 µM [inhibitor, full curve] | 
O=S(=O)(c1ccccc1)N1CCN(c2ncnc3sc(-c4ccccc4)cc23)CC1 | active: 25.1 µM | 
Cc1ccc(S(=O)(=O)n2nc(OC(=O)c3cccs3)cc2N)cc1 | inconclusive: 15.8 µM [inhibitor, partial curve] | 
COc1cc(NC(=O)c2cccs2)c(C(=O)OCC(=O)NCc2ccco2)cc1OC | inconclusive: 39.8 µM [inhibitor, single point] | 
C#C[C@]1(O)CC[C@H]2[C@@H]3CCc4cc(OC)ccc4[C@H]3CC[C@@]21C |  | inactive: 0.468%
CCC(=O)Nc1c(OC(=O)CC)ccc2c(C)cc(=O)oc12 | active: 3.16 µM | 
O=C(O)CCc1ccc(-c2cccs2)n1-c1ccc(C(=O)O)cc1 | active: 12.6 µM | 
COC(=O)c1ccccc1NC1OC(=O)c2ccccc21 (stereo not drawn) | inconclusive: 25.1 µM [inhibitor, single point] | 

SMILES | Potency | activity change, negative = inhibition
Cc1ccccc1-c1nc(CS(=O)(=O)CC(=O)N(C)C2CCCCC2)c(C)o1 | inconclusive: 7.94 µM [inhibitor, single point] | 
CCOC(=O)C(C)Sc1ccc2nnc(-c3ccc(F)cc3)n2n1 (stereo not drawn) | inconclusive: 39.8 µM [inhibitor, single point] | 
COc1ccc(-c2cc(C(F)F)n3ncc(C(=O)N4CCN(C(=O)c5ccco5)CC4)c3n2)cc1 | inconclusive: 39.8 µM [inhibitor, single point] | 
CN(C)CCCSc1ccccc1NC(=O)/C=C\c1ccccc1 |  | inactive: 6.05%
COC(=O)c1[nH]c2ccc(C)cc2c1NC(=O)CN1CCCc2ccccc21 | inconclusive: 31.6 µM [inhibitor, single point] | 
COc1ccccc1-c1nn2c(-c3ccccc3Cl)nnc2s1 | inconclusive: 31.6 µM [inhibitor, single point] | 
OC1CN=C2C=CC=CN2C1 (stereo not drawn) | inconclusive: 15.8 µM [inhibitor, partial curve] | 
CCCCOc1[nH]c2nc(-c3ccco3)n(Cc3ccco3)c(=N)c2c1C#N | active: 25.1 µM | 
COc1cc(C(=O)Nc2nc(-c3cccs3)cs2)cc(OC)c1OC | inconclusive: 1 µM [inhibitor, full curve] | 
CCOc1ccccc1-c1nc(C(N)=O)c2[nH]c(=O)n(-c3cccc(C)c3)c2n1 | inconclusive: 25.1 µM [inhibitor, single point] | 
COc1ccc(CNC(=O)CSc2nnnn2-c2ccc(O)cc2)cc1 |  | inactive: -2.21%
Cc1ccc(C2C(C#N)=C(N)Oc3c2sc2ccccc32)o1 (stereo not drawn) | active: 3.16 µM | 
COc1cc(C(=O)N(Cc2cc3ccccc3[nH]c2=O)CC2CCCO2)cc(OC)c1OC (stereo not drawn) |  | inactive: -3.73%
CCCOCC(C)O (stereo not drawn) | inconclusive: 31.6 µM [inhibitor, single point] | 
O=C(CSc1nc2[nH]ncc2c(=O)n1-c1ccccc1Br)NCc1ccco1 | inconclusive: 39.8 µM [inhibitor, single point] | 
Cc1nc2ccc(NC(=O)N3CCC(c4ccccc4)C3)cc2nc1C (stereo not drawn) | inconclusive: 39.8 µM [inhibitor, single point] | 
CC(=O)c1cc2c(cc1NC(=O)CSc1nnc(C)s1)OCO2 | inconclusive: 31.6 µM [inhibitor, single point] | 
CN(C)C(=O)CSc1cccc2cccnc12 | active: 15.8 µM | 
CC(N=Cc1cccc(O)c1O)c1ccccc1 (stereo not drawn) | active: 3.98 µM | 
O=C1CCNc2cc3ccccc3cc21 | inconclusive: 20 µM [inhibitor, partial curve] | 
COCCN(CCOC)c1ncc(Cl)c(C(=O)c2c(C)cc3ccccn23)n1 | inconclusive: 0.0063 µM [inhibitor, full curve, poor fit] | 
Cc1ccc2c(CN3C(=O)NC4(CCCCC4)C3=O)cc(=O)oc2c1C | inconclusive: 0.794 µM [inhibitor, partial curve] | 
C1=C(c2ccccc2)CCN(c2nc3ccccc3n3cnnc23)C1 | inconclusive: 31.6 µM [inhibitor, single point] | 
O=c1oc2ccccc2c(N2CCCCC2)c1CN1CCCCC1 | inconclusive: 39.8 µM [inhibitor, single point] | 
O=C(O)CN(CCOCCOCCN(CC(=O)O)CC(=O)O)CC(=O)O | inconclusive: 2 µM [inhibitor, partial curve] | 

SMILES | Potency | activity change, negative = inhibition
O=C(Nc1nc(-c2ccco2)cs1)c1ccccc1 | inconclusive: 39.8 µM [inhibitor, single point] | 
O=C1CSC(=S)N1c1cccnc1 | inconclusive: 6.31 µM [inhibitor, partial curve] | 
Cc1nc(C)c(C(=O)Nc2nc3c(C)cccc3s2)o1 | active: 7.94 µM | 
Cc1cc(-c2cccs2)n[nH]1 |  | inactive: 2.05%
Oc1ccc(-c2nc3cnccn3c2Nc2ccc3c(c2)OCCO3)cc1 | inconclusive: 12.6 µM [inhibitor, partial curve] | 
CC(Oc1ccc(Cl)cc1Cl)C(=O)Nc1ccc2oc(-c3ccncc3)nc2c1 (stereo not drawn) | inconclusive: 31.6 µM [inhibitor, single point] | 
O=C(O)c1c[nH]c2c(ccc3[nH]cc(C(=O)O)c(=O)c32)c1=O |  | inactive: 7.17% [at 11.4 µM]
O=c1cc(-c2cccc(O)c2O)oc2ccccc12 | inconclusive: 0.199 µM [inhibitor, full curve] | 
COc1cccc2[nH]c3c(N4CCN(Cc5ccc6c(c5)OCO6)CC4)ncnc3c12 | active: 25.1 µM | 
COCCCN(C(=O)Nc1ccccc1)C(C)c1ccncc1 (stereo not drawn) |  | inactive: 8.52%
Nc1sc2c(c1C(=O)NC1CCS(=O)(=O)C1)CCC2 (stereo not drawn) | active: 1.58 µM | 
Cc1cc(N2CCCCCC2)nc(-c2ccccc2O)n1 | inconclusive: 12.6 µM [inhibitor, partial curve] | 
CCc1cc2c(=O)c(-c3nc4ccccc4n3C)c(C(C)C)oc2c(CN2CCN(C)CC2)c1O | inconclusive: 31.6 µM [inhibitor, single point] | 
Cc1ccc(C(=O)[C@@H]2[C@@H]3[C@@H](C(=O)[C@@H]4OC[C@H]3O4)[C@@H]3C=Cc4ccccc4N23)cc1 | inconclusive: 39.8 µM [inhibitor, single point] | 
CCOC(=O)C1CCCN(CC(=O)Nc2c(C(=O)OC)[nH]c3ccc(C)cc23)C1 (stereo not drawn) | inconclusive: 25.1 µM [inhibitor, single point] | 
CN1CCN(S(=O)(=O)c2ccc3[nH]cc(C(=O)O)c(=O)c3c2)CC1 | inconclusive: 39.8 µM [inhibitor, single point] | 
Fc1ccc(CNc2nc(-c3ccco3)cc(C(F)(F)F)n2)cc1 | inconclusive: 39.8 µM [inhibitor, single point] | 
CCCCCCN(CCCCCC)C(=O)Cc1c(-c2ccc(F)cc2)[nH]c2ccccc12 | active: 31.6 µM | 
COCCn1c(=S)[nH]c2ccc(N(C)C)cc2c1=O | inconclusive: 25.1 µM [inhibitor, single point] | 
COC(=O)c1ccccc1NC(=O)C(C)NS(=O)(=O)c1ccc(OC)cc1 (stereo not drawn) | inconclusive: 39.8 µM [inhibitor, single point] | 
CC(=O)N1CCN(c2ccc(NC(=O)c3ccccc3Br)cc2Cl)CC1 |  | inactive: 10.1%
O=C(Nc1ccccc1C(=O)N1CCN(Cc2ccccc2)CC1)c1ccccn1 |  | inactive: 6.17%
CCc1cccc2c1NC(=O)[C@]21[C@@H]2C(=O)N(Cc3ccccc3)C(=O)[C@@H]2[C@@H]2CCCN21 | inconclusive: 39.8 µM [inhibitor, single point] | 

— PubChem BioAssay AID886 (National Center for Advancing Translational Sciences (NCATS), 2007)
